# According to PubChem BioAssay AID651820 (National Center for Advancing Translational Sciences (NCATS), 2012):
# “And” between values parts separate entries of the source, which are not always exact repeats. Identical values can stand only once. Out of some 340,000 compounds screened, about 12,000 (3.5%) were called active. The inconclusive results got no clear call from the source; some entries with a clear call stand among them for comparison. The call rests on the fitted dose curve; in most records, active means well fitted inhibition curve with a large enough effect; inconclusive means small, poorly fitted or top-dose-only effect, or another doubt; inactive means no such curve, though single readings can be large or run the other way. Potencies of inconclusive entries are doubtful fits and often do not repeat.
# Assay: qHTS Assay for Inhibitors of Hepatitis C Virus (HCV)
# Conditions: Huh7.5.1 HCVcc-Cre (HCVcc is cell-culture hepatitis C virus) infection, luciferase reporter, 44 h; activity change, negative = inhibition: at 41.8 µM (top of the series)
# Summary of the method: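 Compounds are dispensed onto cells plated 4 h earlier at 1,000 per well, with HCVcc-Cre virus (about 0.5 moi) added next. Following 44 h of culture, luminescent signal is measured for 15 sec after 15 min with substrate at room temperature.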
# On the % scale 0 is the no-effect control and ±100 the full control effect; potency means the concentration at half of the fitted maximal effect; tags describe the fitted curve by direction and shape.
Compound,Potency,"activity change, negative = inhibition"
CC(=O)Oc1cccc2c1C(=O)C1CC=CC(OC(C)=O)C1C2=O (stereo not given),"inconclusive: 22.4 µM [inhibitor, single point]",–
CCOc1cc(C)nc(N2CCC(C(=O)NCC3CCCO3)CC2)n1 (stereo not given),"inconclusive: 31.6 µM [inhibitor, single point]",–
CC(=O)c1ccc(N=Nc2c(C)[nH][nH]c2=O)cc1,inactive,–
Cc1cccc(N2N=C(C(=O)O)CCC2=O)c1,inactive,–
Clc1nc(NCCc2ccccc2)c2cn[nH]c2n1,"inconclusive: 20 µM [inhibitor, single point]",–
Cc1c(Cl)cccc1NC(=S)NCc1ccccc1Cl,inactive,–
CCOc1ccc(C(=O)CN2C(=O)NC3(CCCCCC3)C2=O)cc1,"inconclusive: 12.6 µM [inhibitor, single point]",–
COc1ccc(C(C(=O)NC(C)(C)C)N(Cc2ccco2)C(=O)CCC(=O)Nc2cc(C)on2)cc1 (stereo not given),"inconclusive: 31.6 µM [inhibitor, single point] and inconclusive: 35.5 µM [inhibitor, partial curve, poor fit]",–
O=C(c1ccco1)N1CCN(c2ncnc3c2[nH]c2ccc(Cl)cc23)CC1,–,inactive: -0.0012% [at 0.335 µM]
CCC(=O)Nc1ccc(Cl)c(Cl)c1,"inconclusive: 5.01 µM [inhibitor, single point]",–
O=C(NCc1ccncc1)/C(=N/O)c1ccccc1,inactive,–
O=C(Nc1ccc(F)c(F)c1)c1cc(S(=O)(=O)N2CCN(c3ccccn3)CC2)ccc1F,"inconclusive: 22.4 µM [inhibitor, single point]",–
CC1=CC(C)C2(COC(c3ccc[n+](C)c3)OC2)C(C)C1 (stereo not given),inactive,–
CN(CCc1ccccc1)Cc1c[nH]c2ccccc12,inactive,–
Cc1cccc(C)c1NC(=O)CSc1nnc(C)n1CC1CCCO1 (stereo not given),inactive,–
CCCCCCN[C@H]1CCC2C3CC=C4C[C@@H](O)CC[C@]4(C)C3CC[C@@]21C (stereo not given in full),"inconclusive: 10 µM [inhibitor, partial curve]",–
CC(C)COc1cc(=O)[nH]c(SCC(C)C)n1,"inconclusive: 31.6 µM [inhibitor, single point]",–
CCOC(=O)c1oc2ccccc2c1CN1CCN(C(=O)c2ccccc2)CC1,inactive,–
CCOc1cc(CNc2ccc(N3CCOCC3)cc2)cc(Br)c1OCC,"inconclusive: 31.6 µM [inhibitor, single point]",–
CCOC(=O)c1ccc(NC(=O)Nc2ccc(F)cc2)cc1,"inconclusive: 12.6 µM [inhibitor, single point]",–
COc1ccc(NC(=O)c2c(C)noc2-c2snnc2C)cc1,inactive,–
CCOC(=O)c1cnc2c(ccc3ccccc32)c1N,inactive,–
N=c1n(CC(=O)c2ccc(Br)s2)c2ccccc2n1Cc1ccccc1,"inconclusive: 31.6 µM [inhibitor, single point]",–
O=C(Cn1ccc([N+](=O)[O-])n1)N1CCCCCC1,"inconclusive: 2.82 µM [inhibitor, single point]",–
COc1ccc(NC(=O)CSCc2ccccc2C)cc1,"inconclusive: 31.6 µM [inhibitor, single point]",–

Compound,Potency,"activity change, negative = inhibition"
COc1ccc(C#Cc2c(C=O)n(C)c3ccccc23)cc1,active: 10 µM,–
COc1ccc(C2=CC(c3c(C)nn(-c4ccccc4)c3Cl)n3nnnc3N2)cc1OC (stereo not given),active: 11.2 µM,–
Clc1cccc(NCc2cn3cccnc3n2)c1,"inconclusive: 12.6 µM [inhibitor, single point]",–
CCOc1ncccc1C(=O)Nc1ccc(Cl)cc1,"inconclusive: 22.4 µM [inhibitor, single point]",–
CC(C)(C)c1csc(NC(=O)CCc2ccccc2)n1,"inconclusive: 22.4 µM [inhibitor, partial curve]",–
CC(C)c1ccc(OCC(=O)N(c2ccccn2)C2CCCCC2)cc1,"inconclusive: 31.6 µM [inhibitor, single point]",–
Cc1ccc(Oc2ccc(N)cc2)cc1,"inconclusive: 31.6 µM [inhibitor, single point]",–
Cc1ccc(NC(=O)C2CC(=O)Nc3nncn32)cc1 (stereo not given),inactive,–
CC(=O)c1ccc(NC(=O)c2sc3nc4n(c(=O)c3c2C)CCCCC4)cc1,active: 11.2 µM,–
Cc1cc(C(=O)CSC(C)c2nc3ccccc3c(=O)[nH]2)c(C)n1C (stereo not given),inactive,–
CCCc1nc2oc(C(=O)OCC)c(N)c2c2c1COC(C)(C)C2,"inconclusive: 10 µM [inhibitor, partial curve]",–
Cc1cc2c(cc1C)N(C(=O)CCl)CCN2C(=O)CCl,active: 3.98 µM,–
N#Cc1ccc(OCc2nnc(SCC(=O)c3ccccc3)n2-c2ccccc2)cc1,"inconclusive: 8.91 µM [inhibitor, partial curve, poor fit]",–
COc1ccc(C2CC(c3ccc(OC)cc3)n3nc(N)nc3N2)cc1 (stereo not given),"inconclusive: 5.62 µM [inhibitor, single point]",–
Cc1ccc(-c2nnc(N3CCCCCC3)c3ccccc23)cc1,"inconclusive: 31.6 µM [inhibitor, single point]",–
Cc1nc2ccccc2n1CC(O)COCC1CC=CCC1 (stereo not given),active: 11.2 µM,–
COc1ccc(N2CCN(CC(=O)Nc3nc4c(s3)CC(C)CC4)CC2)cc1 (stereo not given),"inconclusive: 25.1 µM [inhibitor, single point]",–
O=C1CCCC(O)=C1Sc1ccccc1C(=O)O,inactive,–
Cc1cccc(OCCn2nc(C(=O)O)c3ccccc3c2=O)c1,inactive,–
COc1ccc2c(c1)-c1c(sn(-c3ccccc3)c1=S)C(C)(C)N2,"inconclusive: 11.2 µM [inhibitor, partial curve]",–
COc1cc(C2CC(=O)c3cnc(N4CCN(Cc5ccccc5)CC4)nc3C2)cc(OC)c1OC (stereo not given),"inactive and inconclusive: 3.16 µM [inhibitor, single point]",–
CCOC(=O)c1cc2c(=O)n3ccccc3nc2n(Cc2ccccc2)c1=N,"inconclusive: 0.501 µM [inhibitor, full curve]",–
CCOC(=O)N1CCN(C(=O)CCc2c(C)nc3c(c(C)nn3-c3ccc(C)c(C)c3)c2C)CC1,"inconclusive: 11.2 µM [inhibitor, partial curve]",–
Cc1ccc(OCCN2CCN(c3nc(NCc4ccco4)c4ccccc4n3)CC2)cc1,active: 11.2 µM,–
CCOC(=O)c1c(NC(=O)CSc2nc3nc(C)cc(C)n3n2)sc(CC)c1C,"inconclusive: 31.6 µM [inhibitor, single point]",–

Compound,Potency,"activity change, negative = inhibition"
CCN(C[C@H]1N[C@@](Cc2ccccc2)(C(=O)OC)[C@H]2C(=O)N(Cc3ccccc3)C(=O)[C@@H]12)C(=O)Nc1ccc(Cl)cc1,"inconclusive: 10 µM [inhibitor, partial curve]",–
CCOc1ccc(NC(=O)[C@@H](NC(=O)c2ccco2)C(C)C)cc1,inactive,–
Cc1nc2ccc(NS(=O)(=O)c3c(F)cc(F)cc3Br)cc2s1,"inconclusive: 25.1 µM [inhibitor, partial curve]",–
O=C(Nc1ccc(C(=O)NCCCN2CCCCC2)cc1)C1=CSCCO1,inactive,–
CCCOc1c(OC)cccc1C1CC(=O)Nc2cc3c(cc21)OCCO3 (stereo not given),"inconclusive: 11.2 µM [inhibitor, single point]",–
O=C(NCCC1=CCCCC1)C(c1ccccc1)c1ccccc1,inactive,–
CC(OC(=O)c1cc2sccc2n1C)C(=O)NCc1ccc(F)cc1 (stereo not given),"inconclusive: 11.2 µM [inhibitor, partial curve, poor fit]",–
CC(C)(C)c1cc(NC(=O)CSc2nnc(NCc3ccccc3)s2)n(-c2ccccc2)n1,"inconclusive: 10 µM [inhibitor, partial curve]",–
CCOC(=O)C(NC(=O)c1ccccc1)(Nc1cc(C)on1)C(F)(F)F (stereo not given),inactive,–
CC(=O)Nc1cccc2c1C(=O)N(c1cccc(OC(C)=O)c1)C2=O,inactive,–
CC(Oc1ccc(Cl)cc1)C(=O)Nc1cccc(S(=O)(=O)N2CCOCC2)c1 (stereo not given),"inconclusive: 31.6 µM [inhibitor, single point]",–
CC[C@]12C(=O)N(C)C[C@H]([C@@H]3C(=O)N(C)C(=O)[C@@H]31)N2C(=O)c1ccc(C)cc1,inactive,–
CC(C)C(=O)Nc1nc2ccc(S(C)(=O)=O)cc2s1,inactive,–
O=C(NN=C1CCCCCC1)c1cccs1,inactive,–
CNc1cccnc1C=NNC(N)=S,active: 3.55 µM,–
CN=c1c([N+](=O)[O-])nn(-c2ccc3c(c2)OCCO3)n1O,"inconclusive: 31.6 µM [inhibitor, single point]",–
CC(C)CNC(=O)C1CCN(Cc2ccc(OCc3ccccc3)cc2)CC1,"inconclusive: 12.6 µM [inhibitor, partial curve]",–
CC(C)=CCCC(C)CN1CCC(O)CC1 (stereo not given),inactive,–
COc1ccc(CC(=O)Nc2cc(C)ccc2O)cc1OC,"inconclusive: 22.4 µM [inhibitor, single point]",–
Cc1ccc(C)c(OCCC(=O)OCC(=O)Nc2cccc(S(=O)(=O)N3CCCC3)c2)c1,inactive,–
Cc1cc(C)c(OCC(=O)N/N=C/c2ccc3c(c2)OCO3)c(C)c1,inactive,–
CCCC1/C(=N/O)CC(c2ccccc2)NC1c1ccccc1 (stereo not given),inactive,–
Cc1ccc(Nc2nc(N)c([N+](=O)[O-])c(NCc3ccco3)n2)cc1,"inconclusive: 8.91 µM [inhibitor, partial curve]",–
c1ccc(OCCOCCSc2ncccn2)cc1,inactive,–
CC(=O)c1ccc2c(c1)C1C(Cl)C(Sc3ccccc3[N+](=O)[O-])CC1C(c1ccccc1)N2 (stereo not given),"inconclusive: 14.1 µM [inhibitor, single point] and inconclusive: 12.6 µM [inhibitor, single point]",–
